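48-hour exposure; five concentrations; linearly interpolated endpoints. Here, GI50 denotes the concentration required for 50% inhibition of growth.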 Not every entry of the source has a single result; some have several. This list holds those alone. The source may hold further records. For some of these results: The records of an entry are repeats in other runs, samples, wells, individuals or studies. Records carry a tag for their origin. Letters hold for one entry only.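 TGI: total growth inhibition.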 For some of these results: The tests behind the records often covered other concentration ranges, which the source does not state; a value can be the end of its range.

6 compounds from PubChem BioAssay (NCI) can be followed below.

Some test systems named below: K-562 leukemia; HL-60(TB) leukemia; HCT-116 colon; HOP-62 NSCLC; RPMI-8226 leukemia; SK-MEL-28 melanoma; MOLT-4 leukemia; MDA-MB-435; HCT-15 colon; COLO 205 colon; NCI-H522 lung; HT29 colon; TK-10 renal; SNB-19 CNS; OVCAR-3 ovarian; SK-OV-3 ovarian; UACC-62 melanoma; ACHN renal; HOP-92 NSCLC; M14 melanoma; 786-0 renal; CAKI-1 renal; SN12C renal; OVCAR-5 ovarian; HCC-2998 colon; UACC-257 melanoma; NCI-H226 lung; NCI-H23 lung; SK-MEL-5 melanoma; PC-3 prostate; UO-31 renal; HS 578T breast; DU-145 prostate; OVCAR-8 ovarian; NCI/ADR-RES ovarian; RXF 393 renal; SR leukemia; MALME-3M melanoma; LOX IMVI melanoma; OVCAR-4 ovarian; SF-539 CNS; SNB-75 CNS; U251 CNS; SF-295 CNS; SK-MEL-2 melanoma; IGROV1 ovarian; CCRF-CEM leukemia; MDA-MB-231 breast; SW-620 colon; NCI-H460 lung; BT-549 breast.

Assay in all cases: growth of human tumour cells (NCI), 48 h

In the case of `Cc1ccc(C(=O)Nc2ccc(CN3CCN(C)CC3)c(C(F)(F)F)c2)cc1C#Cc1cnc2cccnn12`, the TGI in the experiment on K-562 leukemia is 110 nM [sample A, 1 test] and 4.25 µM [sample B, mean of 2 tests].

As to `COc1cc2cc(C(=O)N3CC(CCl)c4ccc(O)cc43)[nH]c2c(OC)c1OC` (centres undefined), the TGI in the experiment on HL-60(TB) leukemia was 62.4 nM and > 100 µM; in the experiment on HCT-116 colon, 101 nM and 10.4 µM; with HOP-62 NSCLC it was 95.6 nM and 15 µM; with K-562 leukemia, 23 nM and 776 nM; with RPMI-8226 leukemia, 53.8 nM and > 100 µM.

For `CC(=O)C(O)N1C(=O)C=CC1=O` (centres undefined), the TGI in the experiment with HL-60(TB) leukemia is > 25 µM, 4.41 µM, 3.06 µM, 23.5 mM; in the experiment with SK-MEL-28 melanoma it was 25 µM, 36.5 µM, 3.31 µM, 21.9 mM; with MOLT-4 leukemia, > 25 µM, 28.6 µM, 4.15 µM, 23.4 mM; in the experiment with HCT-116 colon, 25 µM, 32.1 µM, 10.1 µM, 12 mM; in the experiment with MDA-MB-435, 25 µM and 20.1 mM; in the experiment on HCT-15 colon, 25 µM, 30.5 µM, 3.34 µM, 22.5 mM. Further, the TGI in the experiment with COLO 205 colon is reported as > 25 µM, 3.22 µM, 3.32 µM, 25.2 mM; with NCI-H522 lung, > 25 µM, 26.3 µM, 1.35 µM; in the experiment with HOP-62 NSCLC it was 11.7 µM, 36.9 µM, 14.5 mM; in the experiment on HT29 colon, 25 µM, 35.4 µM, 34.8 µM, 25.6 mM; with TK-10 renal, 25 µM, 27.8 µM, 6.27 µM, 17.7 mM; with SNB-19 CNS, 17.4 µM, 30.9 µM, 32 µM, 54 mM. Besides, the TGI in the experiment with OVCAR-3 ovarian is 31.7 µM and 21.5 mM; in the experiment with SK-OV-3 ovarian, 60.4 µM and 21.7 mM; with UACC-62 melanoma it was 29.7 µM, 32 µM, 16.4 mM; in the experiment with ACHN renal, > 25 µM, 27.5 µM, 6.73 µM, 22 mM; in the experiment with HOP-92 NSCLC it was > 25 µM, 33.2 µM, 3.83 µM, 23.1 mM; in the experiment with M14 melanoma it was 29.5 µM, 8.51 µM, 21.8 mM. Further, the TGI is 11 µM, 29.6 µM, 5.66 µM, 22.7 mM in the experiment on 786-0 renal; > 25 µM, 24.3 µM, 5.27 µM, 10.6 mM in the experiment with K-562 leukemia; > 25 µM, 3.42 µM, 3.18 µM, 23.3 mM with CAKI-1 renal; 14.2 µM, 31.8 µM, 7.14 µM, 19.9 mM in the experiment with SN12C renal; 30.4 µM, 30.9 µM, 24 mM in the experiment with OVCAR-5 ovarian; 25 µM, 32.9 µM, 36.4 µM, 92.9 mM in the experiment on HCC-2998 colon. The TGI is 25 µM, 30 µM, 11.2 µM, 21.6 mM with UACC-257 melanoma; 25 µM, 32 µM, 19.3 mM in the experiment on NCI-H226 lung; 25 µM, 32.8 µM, 30.4 µM, 22.9 mM in the experiment on NCI-H23 lung; 25 µM, 31.9 µM, 32.6 µM, 80.8 mM in the experiment on SK-MEL-5 melanoma; 14.7 µM and 9.62 mM in the experiment with PC-3 prostate; 11.4 µM, 10.5 µM, 7.23 mM with UO-31 renal. Further, the TGI was 25 µM and 77.3 mM with HS 578T breast; 25 µM and 96.8 mM in the experiment with DU-145 prostate; 25 µM, 34.6 µM, 33.4 µM, 23.5 mM in the experiment with OVCAR-8 ovarian; 25 µM and 33.5 mM with NCI/ADR-RES ovarian; 6.49 µM and 23.4 mM in the experiment on RXF 393 renal; 25 µM, 35.2 µM, 3.86 µM, 18.6 mM with SR leukemia. The TGI with MALME-3M melanoma was > 25 µM, 32.8 µM, 4.44 µM, 22.5 mM; in the experiment on LOX IMVI melanoma it was 25 µM, 32.2 µM, 9.17 µM, 23.7 mM; in the experiment on OVCAR-4 ovarian, 23 µM, 8.81 µM, 26 mM; with SF-539 CNS it was 9.42 µM, 35.9 µM, 2.92 µM, 20.1 mM; in the experiment with SNB-75 CNS, 16.1 µM, 33.8 µM, 38.7 µM, 41.3 mM; in the experiment on U251 CNS, 9.44 µM, 34.4 µM, 31.8 µM, 13.6 mM. Further, the TGI is 4.81 µM, 32.6 µM, 32.3 µM, 7.4 mM in the experiment on SF-295 CNS; 25 µM, 35.4 µM, 29.9 µM, 7.53 mM with SK-MEL-2 melanoma; 10.2 µM, 34.8 µM, 39.1 µM, 12 mM in the experiment on IGROV1 ovarian; > 25 µM, 6.23 µM, 1.8 µM with CCRF-CEM leukemia; 9.83 µM and 25.2 mM in the experiment on MDA-MB-231 breast; > 25 µM, 27.3 µM, 3.02 µM, 23.4 mM with SW-620 colon.

With `COc1nc(N)c(NC2OC(CO)C(O)C2O)c(=O)[nH]1` (centres undefined), the GI50 in the experiment on NCI-H522 lung is > 100 µM [sample A, 1 test] and 3.18 µM [sample B, 1 test].

Take `CS(=O)(=O)c1ccc(C(=O)Nc2ccc(Cl)c(-c3ccccn3)c2)c(Cl)c1`: the TGI in the experiment with HL-60(TB) leukemia is > 100 µM [sample A, mean of 2 tests] and 6.87 µM [sample B, 1 test]; in the experiment on HCT-116 colon, > 100 µM [sample A, mean of 2 tests] and 9.33 µM [sample B, 1 test]; with MDA-MB-435 it was > 100 µM [sample A, mean of 2 tests] and 7.72 µM [sample B, 1 test]; in the experiment with COLO 205 colon it was > 100 µM [sample A, mean of 2 tests] and 4.58 µM [sample B, 1 test]; with HT29 colon, > 81 µM [sample A, mean of 2 tests] and 4.16 µM [sample B, 1 test]; with OVCAR-3 ovarian, > 100 µM [sample A, mean of 2 tests] and 6.88 µM [sample B, 1 test]. Besides, the TGI in the experiment with UACC-62 melanoma is > 100 µM [sample A, mean of 2 tests] and 6.4 µM [sample B, 1 test]; in the experiment on CAKI-1 renal, > 100 µM [sample A, mean of 2 tests] and 5.92 µM [sample B, 1 test]; in the experiment on HCC-2998 colon, > 100 µM [sample A, mean of 2 tests] and 6.68 µM [sample B, 1 test]; with UACC-257 melanoma, > 100 µM [sample A, mean of 2 tests] and 9.96 µM [sample B, 1 test]; with SK-MEL-5 melanoma, > 100 µM [sample A, mean of 2 tests] and 3.87 µM [sample B, 1 test]; in the experiment with RXF 393 renal, > 96.5 µM [sample A, mean of 2 tests] and 2.51 µM [sample B, 1 test]. Also, the TGI was > 100 µM [sample A, mean of 2 tests] and 3.06 µM [sample B, 1 test] in the experiment with SF-295 CNS; > 100 µM [sample A, mean of 2 tests] and 3.22 µM [sample B, 1 test] in the experiment on NCI-H460 lung; > 100 µM [sample A, mean of 2 tests] and 6.9 µM [sample B, 1 test] in the experiment with SK-MEL-2 melanoma; > 100 µM [sample A, 1 test] and 8.15 µM [sample B, 1 test] with BT-549 breast. The GI50 with HOP-62 NSCLC is > 87.9 µM [sample A, mean of 2 tests] and 2.45 µM [sample B, 1 test]; with TK-10 renal it was > 79.7 µM [sample A, mean of 2 tests] and 3.94 µM [sample B, 1 test]; in the experiment with SNB-19 CNS, > 82.2 µM [sample A, mean of 2 tests] and 3.77 µM [sample B, 1 test]; with OVCAR-5 ovarian, > 100 µM [sample A, mean of 2 tests] and 2.97 µM [sample B, 1 test]; in the experiment on IGROV1 ovarian, > 80.7 µM [sample A, mean of 2 tests] and 2.43 µM [sample B, 1 test]; in the experiment with SW-620 colon, > 81.3 µM [sample A, mean of 2 tests] and 2.11 µM [sample B, 1 test].

As for `C#CCOCC12C=CC(O1)C1C(=O)N(C)C(=O)C12` (centres undefined), the GI50 was 1.78 µM [sample A, 1 test] and > 100 µM [sample B, 1 test] in the experiment with NCI-H522 lung; 332 nM [sample A, 1 test] and > 100 µM [sample B, 1 test] in the experiment on UACC-257 melanoma.
